Measured values published in a collection of fitness landscapes (doi:10.1016/j.celrep.2020.107928).
Whole data set: some 81,000 sequences, median “one-hybrid fitness for binding parS DNA” near -0.17, cut for the highest 2% near 0.51. The list shows a part of the results.

B1: Caulobacter ParB omega fusion; a variant is named by its letters at X, in order, B8GW30 (parent)
chain: MESVVVGEPGMSEGRRGLGRGLSALLGEVDAAPAQAPGEQLGGSREAPIEILQRNPDQPRRTFREEDLEDLSNSIREKGVLQPILVRPSPDTAGEYQIVAGERAWRAAQRAGLKTVPIMVRELDDLAVLEIGIIENVQRADLNVLEEALSYKVLMEKFERTQENIAQTIGKSXSHVANXMRLLXLPDEVQSYLVSGELTAXHARAIAAAADPVALAKQIIEGGLSVRETEALARKAPNLSAGKSKGGRPPRVKDTDTQALESDLSSVLGLDVSIDHRGSTGTLTITYATLEQLDDLCNRLTRGI

Variants of: B1
Assay: one-hybrid fitness for binding parS DNA (scaled: cognate 1, non-cognate 0); higher = stronger binding
Conditions: with parS DNA site
How it was run: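 The reporter was HIS3, with the binding site 19 bp from the promoter, in E. coli USO used for bacterial one-hybrid selection of Caulobacter ParB libraries with four specificity codons randomised. Growth was on M9 lacking histidine, with 0.1 mM IPTG and 5 mM 3-AT, for 48 hours at 37°C. Illumina sequencing covered plasmids before and after selection; three replicate libraries were pooled and variants with under 10 reads dropped. A fitness score is the log change in variant-to-wild-type read ratio, rescaled to the cognate and non-cognate references.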
In the case of LDDS, the “one-hybrid fitness for binding parS DNA” value is reported as no more than 0.2.
In the case of QVTL, the “one-hybrid fitness for binding parS DNA” value is reported as no more than 0.2.
In the case of CATT, the “one-hybrid fitness for binding parS DNA” value is reported as no more than 0.2.
With LLLA the “one-hybrid fitness for binding parS DNA” value was no more than 0.2.
With GTRS the “one-hybrid fitness for binding parS DNA” value was no more than 0.2.
GFQC was tested, and the “one-hybrid fitness for binding parS DNA” value was no more than 0.2.
For FACG, the “one-hybrid fitness for binding parS DNA” value was no more than 0.2.
With QNLC the “one-hybrid fitness for binding parS DNA” value was no more than 0.2.
With ELLH the “one-hybrid fitness for binding parS DNA” value was no more than 0.2.
In the case of PQAC, the “one-hybrid fitness for binding parS DNA” value is reported as no more than 0.2.
In the case of HMPM, the “one-hybrid fitness for binding parS DNA” value is reported as no more than 0.2.
NKSS was tested, and the “one-hybrid fitness for binding parS DNA” value was no more than 0.2.
In the case of HAPE, the “one-hybrid fitness for binding parS DNA” value is reported as no more than 0.2.
With NCNP the “one-hybrid fitness for binding parS DNA” value was no more than 0.2.
With DPTS the “one-hybrid fitness for binding parS DNA” value was no more than 0.2.
For MKSS, the “one-hybrid fitness for binding parS DNA” value was no more than 0.2.
With NRNT the “one-hybrid fitness for binding parS DNA” value was no more than 0.2.
For VFGC, the “one-hybrid fitness for binding parS DNA” value was no more than 0.2.
For GVQW, the “one-hybrid fitness for binding parS DNA” value was no more than 0.2.
With WVTK the “one-hybrid fitness for binding parS DNA” value was no more than 0.2.
In the case of TKRE, the “one-hybrid fitness for binding parS DNA” value is reported as no more than 0.2.
VWGC was tested, and the “one-hybrid fitness for binding parS DNA” value was no more than 0.2.
QTKP was tested, and the “one-hybrid fitness for binding parS DNA” value was no more than 0.2.
With STNR the “one-hybrid fitness for binding parS DNA” value was no more than 0.2.
For TFCS, the “one-hybrid fitness for binding parS DNA” value was no more than 0.2.
With QFAD the “one-hybrid fitness for binding parS DNA” value was no more than 0.2.
In the case of KHHC, the “one-hybrid fitness for binding parS DNA” value is reported as no more than 0.2.
MNDG was tested, and the “one-hybrid fitness for binding parS DNA” value was no more than 0.2.
In the case of APWT, the “one-hybrid fitness for binding parS DNA” value is reported as no more than 0.2.
CAIN was tested, and the “one-hybrid fitness for binding parS DNA” value was no more than 0.2.
In the case of GRSF, the “one-hybrid fitness for binding parS DNA” value is reported as no more than 0.2.
In the case of VMSV, the “one-hybrid fitness for binding parS DNA” value is reported as no more than 0.2.
RYYC was tested, and the “one-hybrid fitness for binding parS DNA” value was 0.975.
In the case of QQTT, the “one-hybrid fitness for binding parS DNA” value is reported as no more than 0.2.
WMNL was tested, and the “one-hybrid fitness for binding parS DNA” value was no more than 0.2.
In the case of PFAM, the “one-hybrid fitness for binding parS DNA” value is reported as no more than 0.2.
With DALY the “one-hybrid fitness for binding parS DNA” value was no more than 0.2.
DPEP was tested, and the “one-hybrid fitness for binding parS DNA” value was no more than 0.2.
CVGA was tested, and the “one-hybrid fitness for binding parS DNA” value was no more than 0.2.
With PDVT the “one-hybrid fitness for binding parS DNA” value was no more than 0.2.
With RNEL the “one-hybrid fitness for binding parS DNA” value was no more than 0.2.
For TALG, the “one-hybrid fitness for binding parS DNA” value was no more than 0.2.
In the case of VMKG, the “one-hybrid fitness for binding parS DNA” value is reported as no more than 0.2.
In the case of MVYK, the “one-hybrid fitness for binding parS DNA” value is reported as no more than 0.2.
With QLDK the “one-hybrid fitness for binding parS DNA” value was no more than 0.2.
For KSPS, the “one-hybrid fitness for binding parS DNA” value was no more than 0.2.
In the case of LSEW, the “one-hybrid fitness for binding parS DNA” value is reported as no more than 0.2.
In the case of SLNH, the “one-hybrid fitness for binding parS DNA” value is reported as no more than 0.2.
With LRKA the “one-hybrid fitness for binding parS DNA” value was no more than 0.2.
For EFIV, the “one-hybrid fitness for binding parS DNA” value was no more than 0.2.
In the case of QQKH, the “one-hybrid fitness for binding parS DNA” value is reported as no more than 0.2.
For SKSS, the “one-hybrid fitness for binding parS DNA” value was no more than 0.2.
For ACEG, the “one-hybrid fitness for binding parS DNA” value was no more than 0.2.
In the case of HRLA, the “one-hybrid fitness for binding parS DNA” value is reported as no more than 0.2.
With PCRR the “one-hybrid fitness for binding parS DNA” value was no more than 0.2.
For NVQR, the “one-hybrid fitness for binding parS DNA” value was no more than 0.2.
With RMFS the “one-hybrid fitness for binding parS DNA” value was 1.07.
GESV was tested, and the “one-hybrid fitness for binding parS DNA” value was no more than 0.2.
In the case of WCPM, the “one-hybrid fitness for binding parS DNA” value is reported as no more than 0.2.
For TKFG, the “one-hybrid fitness for binding parS DNA” value was no more than 0.2.
LAAI was tested, and the “one-hybrid fitness for binding parS DNA” value was no more than 0.2.
With GQIR the “one-hybrid fitness for binding parS DNA” value was no more than 0.2.
For VLCT, the “one-hybrid fitness for binding parS DNA” value was no more than 0.2.
For QYQG, the “one-hybrid fitness for binding parS DNA” value was no more than 0.2.
With PSVD the “one-hybrid fitness for binding parS DNA” value was no more than 0.2.
For PMQL, the “one-hybrid fitness for binding parS DNA” value was no more than 0.2.
In the case of TRIA, the “one-hybrid fitness for binding parS DNA” value is reported as no more than 0.2.
With NTAN the “one-hybrid fitness for binding parS DNA” value was no more than 0.2.
PRSE was tested, and the “one-hybrid fitness for binding parS DNA” value was no more than 0.2.
With VLTL the “one-hybrid fitness for binding parS DNA” value was no more than 0.2.
In the case of NLMF, the “one-hybrid fitness for binding parS DNA” value is reported as no more than 0.2.
With SITS the “one-hybrid fitness for binding parS DNA” value was no more than 0.2.
For PNHV, the “one-hybrid fitness for binding parS DNA” value was no more than 0.2.
RDCG was tested, and the “one-hybrid fitness for binding parS DNA” value was no more than 0.2.
LFRS was tested, and the “one-hybrid fitness for binding parS DNA” value was no more than 0.2.
With DKYG the “one-hybrid fitness for binding parS DNA” value was no more than 0.2.
REMR was tested, and the “one-hybrid fitness for binding parS DNA” value was no more than 0.2.
For ARQD, the “one-hybrid fitness for binding parS DNA” value was no more than 0.2.
GAKA was tested, and the “one-hybrid fitness for binding parS DNA” value was no more than 0.2.
KALS was tested, and the “one-hybrid fitness for binding parS DNA” value was no more than 0.2.
FDSH was tested, and the “one-hybrid fitness for binding parS DNA” value was no more than 0.2.
In the case of LYGF, the “one-hybrid fitness for binding parS DNA” value is reported as no more than 0.2.
In the case of GCDG, the “one-hybrid fitness for binding parS DNA” value is reported as no more than 0.2.
For AVYN, the “one-hybrid fitness for binding parS DNA” value was no more than 0.2.
In the case of VQMT, the “one-hybrid fitness for binding parS DNA” value is reported as no more than 0.2.
For WKLT, the “one-hybrid fitness for binding parS DNA” value was no more than 0.2.
In the case of THGC, the “one-hybrid fitness for binding parS DNA” value is reported as no more than 0.2.
For FNMR, the “one-hybrid fitness for binding parS DNA” value was no more than 0.2.
With RPKM the “one-hybrid fitness for binding parS DNA” value was no more than 0.2.
For VRCR, the “one-hybrid fitness for binding parS DNA” value was no more than 0.2.
With QNKF the “one-hybrid fitness for binding parS DNA” value was no more than 0.2.
With QILK the “one-hybrid fitness for binding parS DNA” value was no more than 0.2.
AIKF was tested, and the “one-hybrid fitness for binding parS DNA” value was no more than 0.2.
In the case of RMHQ, the “one-hybrid fitness for binding parS DNA” value is reported as no more than 0.2.
For NSPY, the “one-hybrid fitness for binding parS DNA” value was no more than 0.2.
In the case of RSQM, the “one-hybrid fitness for binding parS DNA” value is reported as 0.33.
For TTPW, the “one-hybrid fitness for binding parS DNA” value was no more than 0.2.
KARA was tested, and the “one-hybrid fitness for binding parS DNA” value was no more than 0.2.
For RIII, the “one-hybrid fitness for binding parS DNA” value was no more than 0.2.
In the case of TKWI, the “one-hybrid fitness for binding parS DNA” value is reported as no more than 0.2.
For CWIT, the “one-hybrid fitness for binding parS DNA” value was no more than 0.2.
For GRLK, the “one-hybrid fitness for binding parS DNA” value was no more than 0.2.
In the case of ELGS, the “one-hybrid fitness for binding parS DNA” value is reported as no more than 0.2.
DKYR was tested, and the “one-hybrid fitness for binding parS DNA” value was no more than 0.2.
In the case of RHAY, the “one-hybrid fitness for binding parS DNA” value is reported as 0.403.
For SDTT, the “one-hybrid fitness for binding parS DNA” value was no more than 0.2.
With AETS the “one-hybrid fitness for binding parS DNA” value was no more than 0.2.
TEID was tested, and the “one-hybrid fitness for binding parS DNA” value was no more than 0.2.
With TLSY the “one-hybrid fitness for binding parS DNA” value was no more than 0.2.
HCHS was tested, and the “one-hybrid fitness for binding parS DNA” value was no more than 0.2.
For SPHE, the “one-hybrid fitness for binding parS DNA” value was no more than 0.2.
LARP was tested, and the “one-hybrid fitness for binding parS DNA” value was no more than 0.2.
For APFG, the “one-hybrid fitness for binding parS DNA” value was no more than 0.2.
CPHW was tested, and the “one-hybrid fitness for binding parS DNA” value was no more than 0.2.
LYSP was tested, and the “one-hybrid fitness for binding parS DNA” value was no more than 0.2.
NRRK was tested, and the “one-hybrid fitness for binding parS DNA” value was no more than 0.2.
IYGR was tested, and the “one-hybrid fitness for binding parS DNA” value was no more than 0.2.
In the case of RHQF, the “one-hybrid fitness for binding parS DNA” value is reported as no more than 0.2.
For PTLH, the “one-hybrid fitness for binding parS DNA” value was no more than 0.2.
In the case of TPMC, the “one-hybrid fitness for binding parS DNA” value is reported as no more than 0.2.
In the case of RDNN, the “one-hybrid fitness for binding parS DNA” value is reported as no more than 0.2.
For ISQC, the “one-hybrid fitness for binding parS DNA” value was no more than 0.2.
LQRC was tested, and the “one-hybrid fitness for binding parS DNA” value was no more than 0.2.
For VVYC, the “one-hybrid fitness for binding parS DNA” value was no more than 0.2.
For TLVC, the “one-hybrid fitness for binding parS DNA” value was no more than 0.2.
For MDLK, the “one-hybrid fitness for binding parS DNA” value was no more than 0.2.
QNIM was tested, and the “one-hybrid fitness for binding parS DNA” value was no more than 0.2.
In the case of KWTT, the “one-hybrid fitness for binding parS DNA” value is reported as no more than 0.2.
For RYCI, the “one-hybrid fitness for binding parS DNA” value was no more than 0.2.
With KPLW the “one-hybrid fitness for binding parS DNA” value was no more than 0.2.
DLDE was tested, and the “one-hybrid fitness for binding parS DNA” value was no more than 0.2.
With ACIV the “one-hybrid fitness for binding parS DNA” value was no more than 0.2.
DTES was tested, and the “one-hybrid fitness for binding parS DNA” value was no more than 0.2.
With TMFG the “one-hybrid fitness for binding parS DNA” value was no more than 0.2.
With TGEK the “one-hybrid fitness for binding parS DNA” value was no more than 0.2.
In the case of NSYR, the “one-hybrid fitness for binding parS DNA” value is reported as no more than 0.2.
For CAYC, the “one-hybrid fitness for binding parS DNA” value was no more than 0.2.
For KPFS, the “one-hybrid fitness for binding parS DNA” value was no more than 0.2.
With AMGS the “one-hybrid fitness for binding parS DNA” value was no more than 0.2.
For CETY, the “one-hybrid fitness for binding parS DNA” value was no more than 0.2.
For IDHG, the “one-hybrid fitness for binding parS DNA” value was no more than 0.2.
For HGLA, the “one-hybrid fitness for binding parS DNA” value was no more than 0.2.
In the case of RHTE, the “one-hybrid fitness for binding parS DNA” value is reported as no more than 0.2.
For APRG, the “one-hybrid fitness for binding parS DNA” value was no more than 0.2.
In the case of TGNL, the “one-hybrid fitness for binding parS DNA” value is reported as no more than 0.2.
AAPS was tested, and the “one-hybrid fitness for binding parS DNA” value was no more than 0.2.
TWFR was tested, and the “one-hybrid fitness for binding parS DNA” value was no more than 0.2.
In the case of CWTR, the “one-hybrid fitness for binding parS DNA” value is reported as no more than 0.2.
For GCHV, the “one-hybrid fitness for binding parS DNA” value was no more than 0.2.
In the case of ERDV, the “one-hybrid fitness for binding parS DNA” value is reported as no more than 0.2.
HCFT was tested, and the “one-hybrid fitness for binding parS DNA” value was no more than 0.2.
TSKW was tested, and the “one-hybrid fitness for binding parS DNA” value was no more than 0.2.
In the case of HWSK, the “one-hybrid fitness for binding parS DNA” value is reported as no more than 0.2.
